Test results: PMC4336329 (PLoS ONE, 2015)
Hit rate of the full screen: of about 310,000 compounds, about 14,000 (4.5%) showed an effect of 50% or more. Effects have a minus sign here. The list shows a part of the results.

biological target: human ether-à-go-go-related gene (hERG) potassium channel (human, UniProt Q12809); experiment: primary screen, population patch clamp on CHO cells stably expressing hERG
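Also: peak tail current of the secondary pulse compared with the same well before compound.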

human ether-à-go-go-related gene (hERG) potassium channel, sequence (Q12809 whole entry, looked up): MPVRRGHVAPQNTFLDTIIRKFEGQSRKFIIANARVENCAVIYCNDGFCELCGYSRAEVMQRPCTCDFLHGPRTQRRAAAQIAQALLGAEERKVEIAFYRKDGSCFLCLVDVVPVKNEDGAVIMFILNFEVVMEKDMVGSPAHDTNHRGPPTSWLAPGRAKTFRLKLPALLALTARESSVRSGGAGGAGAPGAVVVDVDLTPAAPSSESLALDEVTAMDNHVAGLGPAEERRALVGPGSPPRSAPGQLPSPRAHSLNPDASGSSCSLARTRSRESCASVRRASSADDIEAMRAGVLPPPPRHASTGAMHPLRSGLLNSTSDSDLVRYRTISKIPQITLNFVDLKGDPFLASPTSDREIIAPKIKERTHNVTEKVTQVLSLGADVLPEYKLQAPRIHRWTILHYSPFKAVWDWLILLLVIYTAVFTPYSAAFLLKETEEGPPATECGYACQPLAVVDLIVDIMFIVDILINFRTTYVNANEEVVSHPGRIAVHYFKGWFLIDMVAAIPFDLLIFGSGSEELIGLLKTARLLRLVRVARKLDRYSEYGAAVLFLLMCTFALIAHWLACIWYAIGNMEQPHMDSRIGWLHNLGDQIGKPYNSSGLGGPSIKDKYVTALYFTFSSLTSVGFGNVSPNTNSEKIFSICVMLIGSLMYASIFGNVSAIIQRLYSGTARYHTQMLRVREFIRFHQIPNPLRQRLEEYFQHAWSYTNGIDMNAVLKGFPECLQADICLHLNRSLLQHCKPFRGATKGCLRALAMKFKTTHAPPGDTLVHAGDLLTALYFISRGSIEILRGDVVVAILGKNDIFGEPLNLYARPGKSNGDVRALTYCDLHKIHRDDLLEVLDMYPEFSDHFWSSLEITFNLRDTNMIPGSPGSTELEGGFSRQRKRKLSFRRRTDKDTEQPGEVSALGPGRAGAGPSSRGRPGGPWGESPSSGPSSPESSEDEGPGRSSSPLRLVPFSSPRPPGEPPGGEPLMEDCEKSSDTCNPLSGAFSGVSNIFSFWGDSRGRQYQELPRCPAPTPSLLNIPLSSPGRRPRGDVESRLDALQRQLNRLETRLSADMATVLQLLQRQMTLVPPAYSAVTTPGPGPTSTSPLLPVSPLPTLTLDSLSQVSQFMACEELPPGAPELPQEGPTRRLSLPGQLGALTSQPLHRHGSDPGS

SMILES	hERG current change (%, negative = inhibition) at 10uM [%]
COc1ccc(OCC(=O)O/N=C(\N)Cc2ccc(Cl)cc2)cc1	-1.67
O=[N+]([O-])c1ccc(COc2cccc(CNc3ccc(Br)cc3)c2)cc1	-5.28
Cc1ccc(N(C(=O)Cn2nnc(-c3ccc(F)cc3)n2)C(CC(C)C)C(=O)NCC2CCCO2)cc1 (stereo not drawn)	-26.1
O=C(NCC1CCCO1)c1cnn2c(C(F)F)cc(C3CC3)nc12 (stereo not drawn)	-2.7
COc1cc(NC(=O)C2=CC(c3cccs3)=NS(=O)(=O)N2C)cc(OC)c1OC	-1.96
CCOC(=O)c1c(-c2ccc(C)cc2)csc1NC1=NS(=O)(=O)c2ccccc21	-1.41
CCN(CC)CCCN=Cc1c(O)n(-c2ccc(C)cc2)c(=O)c2ccccc12	-5.54
C=CCN(CC=C)C(=O)CN1C(=O)NC(C)(c2ccc3cc(OC)ccc3c2)C1=O (stereo not drawn)	7.26
CC(C)N(C)CCOC(=O)c1ccccc1Cl.Cl	0.168
COC(=O)c1cc(N=Cc2c(O)c3ccccc3oc2=O)cc(C(=O)OC)c1	21.8
COc1cccc(-c2nnc(NC(=O)C3CCCCC3)o2)c1	-0.832
c1cnc2ccc(C(c3nnnn3C3CCCCC3)N3CCCCC3)cc2c1 (stereo not drawn)	-15.6
COc1cccc2cc(-c3cn4ccc(C)cc4n3)c(=O)oc12	3.88
Cc1nnc(NC(=O)C2CCN(S(=O)(=O)c3cc([N+](=O)[O-])ccc3Cl)CC2)o1	-12.8
CCCC(=O)N1CCN(c2nc3ccc(CC)cc3s2)CC1	-23.4
O=C(NCCc1cn2ccccc2n1)c1ccccc1F	1.56
N#C/C(=C\c1ccc(F)c(Br)c1)C(=O)NC1CC1	-29.2
CCCc1nnc(SCC(=O)N2CCOCC2)n1Cc1ccco1	7.39
CC1CCN(c2c(NCc3ccc(C(=O)NCc4cccnc4)cc3)c(=O)c2=O)CC1	2.62
COc1ccc(C2Nc3ccc4ccccc4c3-c3c2c(=O)oc2ccccc32)cc1 (stereo not drawn)	2.54
COc1ccc(C(=O)NC(=S)Nc2cccc3ncccc23)cc1[N+](=O)[O-]	10.4
COCCCC1CCN(C(=O)C2CCC(=O)N(CC3CCCCC3)C2)CC1 (stereo not drawn)	-5.37

SMILES	hERG current change (%, negative = inhibition) at 10uM [%]
CC1C/C(=N/N2C(=O)CSC2=S)CC(C)(C)C1 (stereo not drawn)	14.4
NC(=O)c1cc(S(=O)(=O)N2CCc3ccccc3C2)cs1	18
N#Cc1ccc(Cn2c(=O)oc3ccccc32)cc1	-40.6
Cc1ccc(CCNC(=O)c2coc3nc4ccccc4nc23)cc1	-1.66
CC(NC(=O)CCC1COc2ccccc2O1)c1ccccc1 (stereo not drawn)	5.24
CC1(C)CC(NC(=O)c2cc(S(=O)(=O)N3CCOCC3)c(Cl)cc2Cl)CC(C)(C)N1	-0.662
Cc1cc(=O)oc2cc(OCC(=O)N/N=C/c3cc([N+](=O)[O-])ccc3O)ccc12	13.3
CCCC(CCC)=NNc1ccc(S(=O)(=O)Nc2ccccc2OC)cc1[N+](=O)[O-]	13.1
CCOCCCn1c(SCC(=O)Nc2ccccc2)nc2ccccc2c1=O	-29.4
COc1ccc(N2C(=O)CSC23CCCCC3)cc1	10.6
Cc1cc(OCCn2cnc3ccccc3c2=O)ccc1[N+](=O)[O-]	-12.4
O=C(NCc1cccnc1)C(=O)NCC(c1ccco1)N1CCN(c2ccccc2)CC1 (stereo not drawn)	1.2
O=C(Nc1ccccc1)[C@@H]1[C@@H]2C(=O)N(c3ccc(F)cc3)C(=O)[C@@H]2[C@H]2C=CC=NN21	-1.2
CSc1nncn1/N=C/c1ccc2c(c1)OCO2	15
CCOC(=O)C(CC)/C(C)=N\NC(=O)c1ccccc1O (stereo not drawn)	11.7
COc1ccc(C(=O)N2CCC3(CC2)NCCc2[nH]cnc23)cc1OC	31.7
CCCCOc1ccc(C(=O)OC(C)CN(C)C)cc1.Cl (stereo not drawn)	-19.2
CCOC(=O)C1(CCOc2ccccc2)CCN(Cc2ccc(OCCO)cc2)CC1	-77.9
O=S(=O)(c1cccc2nsnc12)N1CCN(C/C=C/c2ccccc2)CC1	-47.6
CCOc1cc(/C=N/NC(=O)c2ccc3c(c2)OCCO3)cc(Br)c1O	5.6
O=S(=O)(c1cccc2nsnc12)N1CCN(C/C=C\c2ccccc2)CC1	-46.6
CC(C)NS(=O)(=O)c1ccc(OCC(=O)NCc2cccnc2)cc1	-5.7

SMILES	hERG current change (%, negative = inhibition) at 10uM [%]
CC1=C(/C=C/c2ccccc2)CCN(C)C1.Cl	-24.6
Cl.NCC1CCC(C(=O)Oc2ccc(CCC(=O)O)cc2)CC1 (stereo not drawn)	19.4
O=C(CCl)Nc1nccs1	6.62
Cc1ccc(N2C(=O)CC(NCC3CCCO3)C2=O)cc1 (stereo not drawn)	46.9
C(=N\Nc1nc(Nc2ccccc2)nc(N2CCOCC2)n1)/c1c[nH]c2ccccc12	0.207
CC1=C(C)CC(C(=O)N2CCN(Cc3ccc4c(c3)OCO4)CC2)C(C(=O)O)C1 (stereo not drawn)	21.4
Cc1ccc(CNC(=O)c2ccc(CNS(=O)(=O)c3ccc4c(c3)C(C)(C)C(=O)N4C)cc2)o1	-7.71
C/C(=N/NC(=O)c1ccoc1C)C12CC3CC(CC(C3)C1)C2	11.5
COc1cc([N+](=O)[O-])ccc1NC(=O)CC1SC(=Nc2ccc(F)cc2)N(CCC2=CCCCC2)C1=O (stereo not drawn)	-0.932
Cc1cc(C)cc(NC(=O)c2ccccc2NC(=O)CCC(=O)O)c1	6.52
Cc1ccc2[nH]c(C(=O)NCCN3CCCC3)cc2c1.Cl	-30.1
CCOc1ccc(Cn2nnc(C(=O)Nc3cc(C)cc(C)c3)c2N)cc1	7.96
c1ccc(-n2nnnc2Oc2ccc(-c3nnco3)cc2)cc1	-26.8
C=CCNC(=O)/C(C#N)=C/c1ccccc1Cl	16.4
Cc1ccccc1S(=O)(=O)NCC1CCCO1 (stereo not drawn)	17.1
Nc1nc(N)c2nc(-c3ccccc3)c(N)nc2n1	-8.79
CN(CCNC(=O)C1CC(=O)N(C2CCCC2)C1)Cc1ccccc1 (stereo not drawn)	-1.99
O=C(NCc1ccco1)c1ccc(NS(=O)(=O)c2cccc(F)c2)cc1	2.54
CCOC(=O)C1=C(N)OC2=C(C(=O)CC(C)(C)C2)C1c1ccc(CC)s1 (stereo not drawn)	-7.5
O=c1[nH]c(SCCN2CCOCC2)nc(O)c1-c1ccccc1	13.2
COc1cccc(-c2cc(C(F)(F)F)nc(NCc3ccco3)n2)c1	18.8
Nc1c(N(Cc2ccccc2)C(=O)CCc2ccccc2)c(=O)[nH]c(=O)n1Cc1ccccc1	-5.81

SMILES	hERG current change (%, negative = inhibition) at 10uM [%]
Cc1ccc([C@@H]2[C@@H]3C(=O)N(C)C(=O)[C@@H]3[C@@H]3C(=O)Nc4ccccc4C(=O)N23)cc1	-11
COc1ccc(C(O)c2nc3ccccc3s2)cc1 (stereo not drawn)	6.16
Cc1ccc(CNC(=O)c2ccc(N3CCC4(CC3)CC(c3cccc(Br)c3)=NO4)c(NC(=O)c3cccc(C)c3)c2)cc1	12.2
Cc1sc2nc(C(C)C)nc(SCC(=O)N3c4ccccc4CC3C)c2c1C (stereo not drawn)	15.6
O=C(CO)C(O)C(O)C(O)CO (stereo not drawn)	8.48
CC(=O)Nc1ccc(NC(=O)C2CCN(c3c(Cc4ccccc4)c(C)nc4ncnn34)CC2)cc1	2.74
CC1CCCC(NC(=O)CN(C)S(=O)(=O)c2cccc3cccnc23)C1C (stereo not drawn)	-8.41
O=C(CNc1ccccc1C(=O)O)c1ccccc1	14.4
Cc1cc(C(F)(F)Cl)n2ncc(-c3ccccn3)c2n1	7.26
COC(=O)C1=C(O)/C(=C/c2cccc(OC)c2O)N=C1C	26.5
N#C/C(=C\c1ccc(O)c(O)c1)C(=O)NCc1ccccc1	-10.7
O=C(c1cc(F)c(F)cc1Cl)N1CCN(c2ccc([N+](=O)[O-])c3ncccc23)CC1	-67.4
CCOc1ccc2oc(C(=O)N(CC)CC(=O)Nc3ccc(NC(C)=O)cc3)c(C)c2c1	-35.3
COc1cc(/C=C2/NC(=O)N(Cc3ccccc3F)C2=O)cc(OC)c1OC	14.8
O=C1C2C3C=CC(C4CC34)C2C(=O)N1c1cc(Cl)ccn1 (stereo not drawn)	2.55
CCOC(=O)N1CCN(C(=O)c2ccccc2NC(=O)COc2ccccc2C)CC1	-16.2
O=C(NN1CCOCC1)c1cc(-c2ccccc2)nc2ccccc12	-8.03
CCOC(=O)C1(Cc2cccc(OC)c2)CCN(Cc2ccc(OC)c(O)c2)CC1	-77.9
Cc1ccsc1/C=C/C1=NCCCN1C.O=C(O)C(O)C(O)C(=O)O	12.3
N#CCCn1cc(/C=N/NC(N)=S)c(-c2ccc(Br)cc2)n1	-36.4
CCCCn1c(-c2cccc(F)c2)nc2c1c(=O)[nH]c(=O)n2CC(C)C	9.57
